Experimental data: publication PMC12136788
This is one part of the list.

T1: UNK ZnF1-6 (called full-length) (human, UniProt Q9C0B0 30-357)
T1 sequence: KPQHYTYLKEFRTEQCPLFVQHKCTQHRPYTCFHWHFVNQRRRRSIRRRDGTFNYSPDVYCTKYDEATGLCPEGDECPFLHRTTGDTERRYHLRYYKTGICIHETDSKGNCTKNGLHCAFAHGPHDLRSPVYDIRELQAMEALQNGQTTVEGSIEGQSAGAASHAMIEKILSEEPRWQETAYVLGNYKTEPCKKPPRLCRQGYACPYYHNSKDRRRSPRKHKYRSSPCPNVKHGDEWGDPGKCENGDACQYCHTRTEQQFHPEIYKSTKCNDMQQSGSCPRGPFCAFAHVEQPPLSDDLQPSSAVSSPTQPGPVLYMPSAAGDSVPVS

B1: ENSG00000070961:be:win_5301|3pUTR|ENSG00000070961|bound_else_gene|NA|bound_elsewhere_windowed (ssRNA)
RNA: GGGAGUUCUACAGUCCGACGAUCUUGCCUCUGUCUUUACCCUUUAGAAACUGGCAUGUGUUAGGGCCCAGAUUUCACCAGAUACACAAUCCUCAGGCUGACAUAAAGUUUACGAGGACUGCUACUAUAACUGAGAGUGCUGACCAACAGAGGAUUGAGCAUCA
B2: chr20:4701031:4701132:+|3pUTR|ENSG00000171867|msi1|FALSE|unique (ssRNA)
RNA: GGGAGUUCUACAGUCCGACGAUCCAUAGUUUCUGUAAUUGGCUUUUGAAUCAAAGAAUAGGGAGACAAUCUAAAAAAUAUCUUAGGUUGGAGAUGACAGAAAUAUGAUUGAUUUGAAGUGGAAAAAGAAAUUCUGUUAAUGUUCAACAGAGGAUUGAGCAUCA
B3: chr11:35810521:35810622:+|3pUTR|ENSG00000166326|unk|total|mutant (ssRNA)
RNA: GGGAGUUCUACAGUCCGACGAUCCCAGAAACCAUAAGACUCAGGCAGUUCUUGAUUCUGGAGGCCUGCCUGGUAAGAUAAGACCGUAUAAUUUGGAACUGAGAACAUACCAGAAACAGCAGAACGAGGGCCAGAGCAGAAAAACAACAGAGGAUUGAGCAUCA
B4: ENSG00000147394:stop:overlap|stop_codon|ENSG00000147394|stop_codon|NA|stop_codon (ssRNA)
RNA: GGGAGUUCUACAGUCCGACGAUCAUCAGAUCUUCAUUCACCGUGACACCAUUCACUGUGGGAAAUGCUAUGAGAAGCUCUUCUAGCGACCCCCCACCGCCAGGCUGAUCAGAAGCUGAUGACUCGUGGACAAAUUUGGCUGUCCAACAGAGGAUUGAGCAUCA
B5: chr1:220062840:220062943:-|CDS|ENSG00000162813|unk|total|mutant (ssRNA)
RNA: GGGAGUUCUACAGUCCGACGAUCGUUUACACAGGCAGGACCAGAUGCUGUGUUGGGGAGGACAAUCUGGGGAGUUUCCGGUUCCGGCGCCUUUGGGUUUCAGCUGAAAGAAGUCCCUGCUGGGAAACACAUUAUCACAACUACCAACAGAGGAUUGAGCAUCA
B6: chr11:123627604:123627705:+|3pUTR|ENSG00000023171|unk|total|mutant (ssRNA)
RNA: GGGAGUUCUACAGUCCGACGAUCAUUUGGAUCUAUAACUGUACUUUGCCUGGCGCUGUGCGCAAGGUCAGAAAACUUACUGCCCGUACCCCGAAACACACAAGGCUGCCCAGCCAAAUCUUAAUGUAAAGCCGCCCGAGCCAUCAACAGAGGAUUGAGCAUCA
B7: chr5:172042892:172042993:-|3pUTR|ENSG00000072786|msi1|total|mutant (ssRNA)
RNA: GGGAGUUCUACAGUCCGACGAUCGAUUCUCCCGCUUCAACCUUGAGCCGCUGGGACGACAGAUACAUGCUACUGCACCCAGCCCGGUUAAGGUUCUGUAUACUCUGUCUUUCUAAAGCAAUUCCCUGGAAAUUUUCUCAACAUCAACAGAGGAUUGAGCAUCA
B8: chr1:13148904:13149928:-|three_prime_utr|ENSG00000280267|control|control|control (ssRNA)
RNA: GGGAGUUCUACAGUCCGACGAUCCCUGGACCUGAGUGGCAUCAGACUGACCAAUUACAGUCUUGUGCCUCUCCAAAUUCUCCUAGAAAAAGUUGCAGCCACCCUUGAGUACCUGGAUUUAGAUGACUGUGGCAUCAUAGACUCCAACAGAGGAUUGAGCAUCA
B9: chr5:147393259:147393361:-|3pUTR|ENSG00000113657|msi1_unk|FALSE|overlapping (ssRNA)
RNA: GGGAGUUCUACAGUCCGACGAUCAGACCCAACCAUUUCUUCCACCUGCUUGAUUGUGCCAGUGUUUGCUCAGGCCUCUUUCUUAGUGUUGCUUUCAAAUCCUUCUCUUUCCUGGGUUGGGAAGGCCAGGCAGGGACAGAGCAACAACAGAGGAUUGAGCAUCA
B10: ENSG00000197122:stop:overlap|stop_codon|ENSG00000197122|stop_codon|NA|stop_codon (ssRNA)
RNA: GGGAGUUCUACAGUCCGACGAUCCCUUCCUGGAGGACUACUUCACGUCCACCGAGCCCCAGUACCAGCCCGGGGAGAACCUCUAGGCACAGGCGGGCCCAGACCGGCUUCUCGGCUUGGAUCCUGGGCUGGGUGGCCCCUGUCCAACAGAGGAUUGAGCAUCA
B11: ENSG00000124422:stop:overlap|stop_codon|ENSG00000124422|stop_codon|NA|stop_codon (ssRNA)
RNA: GGGAGUUCUACAGUCCGACGAUCACGUCCUGGACAGCGAAGGGUACUUGCUGUUCUAUCACAAACAGUUCCUGGAAUACGAGUAGCCUUAUCUGCAGCUGGUCAGAAAAACAAAGGCAAUGCAUUGGCAAGCCUCACAAAGUGCAACAGAGGAUUGAGCAUCA
B12: chr10:24620413:24620514:-|CDS|ENSG00000107863|msi1|FALSE|bound_elsewhere (ssRNA)
RNA: GGGAGUUCUACAGUCCGACGAUCGUGCUAAUGAAGUAUUGUCCAAGAAGUGCAUCUCAAGGAGCACUGACGUCUCCAUCUGUUAGUUUUAGUAAUCAUAGAACUCGUUCAUGGGAUUAUAUUGAGGGACAGGAUGAAACCUUACAACAGAGGAUUGAGCAUCA
B13: chr7:66152395:66152486:+|3pUTR|ENSG00000241258|msi1_unk|total|mutant (ssRNA)
RNA: GGGAGUUCUACAGUCCGACGAUCCGUUGAGAGGAUUGUUUAUUUGAUUUUUAUCCUCAUCCCAGCAGGCCUGGCUUUGUGGUCCGUUGGGUACAUCACAAAAAUAAGUUAAAAAGAAAUAUUUGUGCCUUGGGGAGAAGAAACCAACAGAGGAUUGAGCAUCA
B14: chr10:126014591:126014692:-|3pUTR|ENSG00000148848|msi1|FALSE|unique (ssRNA)
RNA: GGGAGUUCUACAGUCCGACGAUCAAAGGUUUGUCUCCUGAAAUUUUUUAAGUUUGUUUUCCUGACACAUGUAAUCAGAUGUGUAGCAACCGAGGGAAACGAAGCCUAACAUUCUCCAUUGUGGAAAUACACACAGGAGGUUACCAACAGAGGAUUGAGCAUCA

Biological target: T1, UNK ZnF1-6 (called full-length)
Test: nsRBNS (natural sequence RNA bind-n-seq); RBNS binding buffer (assumed for nsRBNS): 25 mM Tris pH 7.5, 150 mM KCl, 3 mM MgCl2, 0.01% Triton X-100, 500 ug/ml BSA, 20 U/ml SUPERase-In, 4 C; UNK is unkempt and MSI1 is Musashi-1; names of the RNAs are library labels; protein concentration not given here; high values mean tight binding

Binder	binding signal [enrichment R]
B1	0.585
B2	0.645
B3	0.753
B4	0.671
B5	0.772
B6	0.583
B7	0.503
B8	0.577
B9	0.833
B10	0.684
B11	0.738
B12	1.35
B13	0.667
B14	0.363
